In all, about 320,000 compounds went through this assay and about 200 (0.062%) were called active. The shares of active, inactive and inconclusive entries below differ from those in the screen. Calls follow the shape of the dose curve; as a rule, active = well fitted activation curve with a large enough effect; inconclusive = small, poorly fitted or top-dose-only effect; inactive = no such curve, though single readings can be large or run the other way. Potencies of inconclusive entries are left out as doubtful fits.
test: qHTS assay for re-activators of p53 using a Luc reporter; details: H1299 p53-A138V BP100-luciferase reporter, luminescence, 24 h; series mostly up to 92.2 µM; also: nearly all actives have a fitted effect of over 45% in size
In short: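 p53-null H1299 cells stably carrying temperature-sensitive p53-A138V and a BP100-luciferase reporter were pinned with compounds (4-point, 1:5 series) and held 24 hrs at 37 deg C. Luminescence was read 10 min after detection reagent.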
Potency is read from the fitted curve at half-maximal effect; tags tell the direction and shape of the fitted curve.

| SMILES | Potency |
| --- | --- |
| O=C(O)CCC(=O)Nc1nc2nccc(-c3ccccc3)n2n1 | inconclusive [activator, partial curve, poor fit] |
| O=[N+]([O-])c1cccc(/C([O-])=C(/C(=S)Nc2ccccc2)[n+]2ccccc2)c1 | inactive |
| CCCC[C@@H](CNC)NC[C@H](Cc1ccc(O)cc1)NCCc1ccc(OCC)cc1 | inactive |
| Cc1cc(C(=O)COc2ncnc3sccc23)c(C)n1C | inconclusive [activator, partial curve, poor fit] |
| CCOC(=O)CNC(=O)CSc1nnc(NC(=O)c2ccc3c(c2)OCO3)s1 | inconclusive [activator, partial curve, poor fit] |
| CC(=O)c1csc(-c2cccc(-c3nc4ccc(Cl)cn4c3NC3CCCCC3)c2)c1 | inactive |
| CC(C)[C@H](NC(=O)c1ccccc1F)C(=O)Nc1nc2c(s1)CCCC2 | inconclusive [activator, full curve, poor fit] |
| O=C(CCSc1ccc(Cl)c(Cl)c1)NC12CC3CC(CC(C3)C1)C2 | inactive |
| Cc1ccc(-c2nnc(-n3nc(C)cc3C)c3ccccc23)cc1 | inactive |
| CN(C)c1ccc(-c2nc3ccccn3c2/N=C/c2ccc(Br)cc2)cc1 | inconclusive [activator, full curve, poor fit] |
| Oc1ccc(F)cc1-c1cc(-c2ccc3c(c2)OCCO3)n[nH]1 | inconclusive [activator, partial curve, poor fit] |
| O=C1/C(=C/c2cccnc2)CCc2c1[nH]c1ccccc21 | inactive |
| O=c1[nH]cnc2sc(-c3ccccc3)cc12 | inactive |
| Cc1ccc(NC(=O)C(c2ccccc2)N2CCN(CC(=O)NC3CC3)CC2)cc1 (stereo not given) | inconclusive [activator, partial curve, poor fit] |
| O=C(Cn1cnc2ccccc21)N/N=C/C(Br)=C/c1ccccc1 | inconclusive [activator, partial curve, poor fit] |
| Cc1cc(C)c2nc(N3CCCC(C(=O)NC4CCCC4)C3)sc2c1 (stereo not given) | inactive |
| S=C(Nc1ccccn1)NC1CCCCC1 | inactive |
| Cc1cccc(-n2c(SCC(=O)N3CC(=O)Nc4ccccc43)nc3ccccc3c2=O)c1 | inactive |
| COCCn1c(C)cc(C(=O)COC(=O)c2ccc3c(c2)NC(=O)CS3)c1C | inactive |
| Cc1cc(NC(=O)CSCC(=O)Nc2nc3ccccc3s2)no1 | inconclusive [activator, full curve, poor fit] |
| CCCc1cc(C(=O)Nc2cc(Cl)ccc2O)no1 | inconclusive [activator, partial curve, poor fit] |
| Cn1cc([N+](=O)[O-])c(C(=O)Nc2sc3c(c2C#N)CCC3)n1 | inconclusive [activator, full curve, poor fit] |
| COc1ccc(N(Cc2cc3cc(C)ccc3[nH]c2=O)C(C)=O)cc1 | inconclusive [activator, single point] |
| Cc1nn(-c2ccccc2)c(Cl)c1/C=C/C(=O)c1ccccc1 | inconclusive [activator, partial curve, poor fit] |

| SMILES | Potency |
| --- | --- |
| C=CCn1c(CCCOc2ccc(Cl)cc2Cl)n[nH]c1=S | inactive |
| CCN(CC)S(=O)(=O)c1ccc(NC(=O)C2COc3ccccc3O2)cc1 (stereo not given) | inconclusive [activator, single point] |
| C(=C\c1ccco1)/C1=NN(c2ccccc2)C(c2ccco2)C1 (stereo not given) | inconclusive [activator, partial curve, poor fit] |
| CCc1ccc2oc(-c3cccc(N)c3)nc2c1 | inactive |
| CC(C)(C)C(=O)NC(=S)NNC(=O)c1ccncc1 | inactive |
| Nn1cnnc1N/N=C\c1ccc(-c2ccccc2[N+](=O)[O-])o1 | inconclusive [activator, partial curve, poor fit] |
| COc1ccc(OC)c(CCNC(=O)C(C)n2nc(C)c3c(C)n(-c4ccccc4)nc3c2=O)c1 (stereo not given) | inactive |
| CC(C#Cc1ccc2c(c1)COc1c3ccccc3nn1-2)OC(C)(C)C (stereo not given) | inconclusive [activator, full curve, poor fit] |
| COc1ccc(O)c(C(=O)c2cnn(-c3ccccc3)c2)c1 | inconclusive [activator, partial curve] |
| O=C1CC(c2ccc(Cl)cc2)n2nc(N3C(=O)CCC3=O)nc2N1 (stereo not given) | inconclusive [activator, partial curve, poor fit] |
| Cc1ccc2cc(C#N)c(NCc3ccco3)nc2c1 | inconclusive [activator, partial curve, poor fit] |
| CCc1ccc(N2C(=O)C3C4C=CC(CC4)C3C2=O)cc1 (stereo not given) | inactive |
| Cc1ccc2nc(N3CC(C)OC(C)C3)nc(-c3ccccc3)c2c1 (stereo not given) | inconclusive [activator, single point] |
| O=C(Nc1ccccc1Br)c1ccc2nccnc2c1 | inconclusive [activator, full curve, poor fit] |
| c1ccn2c(SCc3cn4ccsc4n3)nnc2c1 | inactive |
| O=C(c1ccc2nc(Cc3cccc(Cl)c3)oc2c1)N1CCC(CO)CC1 | inconclusive [activator, single point] |
| S=C(c1ccc(-c2ccc(Cl)cc2)o1)N1CCCCC1 | inconclusive [activator, partial curve, poor fit] |
| NC(=O)c1ccsc1NC(=O)c1ccc2c(c1)CCCC2 | inconclusive [activator, partial curve, poor fit] |
| Cc1cc(NC(=O)c2ccccc2F)on1 | inconclusive [activator, partial curve, poor fit] |
| COc1ccccc1N1C(=O)S/C(=C\c2cc(C)n(C)c2C)C1=O | inactive |
| Cc1cc2oc(C(=O)Nc3nonc3C)c(C)c2cc1Cl | inconclusive [activator, full curve, poor fit] |
| Cn1nccc1NC(=O)CC(CC(=O)O)c1ccccc1 (stereo not given) | inconclusive [activator, single point] |
| O=C(CSc1nc2ccccc2o1)c1ccc2c(c1)OCCO2 | inconclusive [activator, single point] |
| Nc1nc(CSCc2ccccc2)nc(N2CCOCC2)n1 | inconclusive [activator, single point] |

| SMILES | Potency |
| --- | --- |
| CCn1ccnc1CN(C)Cc1nc(-c2cccc(Cl)c2)no1 | inactive |
| CCCCSc1nsc(NC(C)=O)n1 | inconclusive [activator, partial curve, poor fit] |
| CCOC(=O)c1sc(Nc2nc3ccc(OC)cc3s2)cc1C | inconclusive [activator, partial curve, poor fit] |
| CC(=O)c1cc(C)ccc1OC(=O)CN1C(=O)c2ccccc2C1=O | inconclusive [activator, full curve, poor fit] |
| C=CCc1cccc(/C=N/NC(=O)c2ccccc2Br)c1O | inconclusive [activator, partial curve, poor fit] |
| O=C(CSc1nnc(-c2ccccc2)o1)N1CCCC1 | inconclusive [activator, partial curve, poor fit] |
| Nc1cccc(-n2nncc2-c2ccc(Cl)cc2)c1 | inactive |
| O=C(/C=C/c1ccc2c(c1)OCO2)c1ccccn1 | active: 31.6 µM |
| COc1cc(SC)ccc1C(=O)NCC1CCCCC1 | inconclusive [activator, partial curve, poor fit] |
| CC(C)(C)SCCNC(=O)c1ccc(Cl)c([N+](=O)[O-])c1 | inconclusive [activator, partial curve, poor fit] |
| Cc1ccccc1C(=O)Nc1cccc(NC(=O)c2ccc(-c3ccc(Br)cc3)o2)c1 | inactive |
| Cc1cc(C(=O)COc2ccccc2C(N)=O)c(C)n1C1CC1 | inconclusive [activator, single point] |
| CCSc1nnc(NC(=O)NC(C)(C(F)(F)F)C(F)(F)F)s1 | inconclusive [activator, single point] |
| O=C(Cn1nnc2ccccc21)NCc1ccccc1 | inconclusive [activator, full curve, poor fit] |
| C=CCn1c(CNc2ccccc2)nnc1SCC(=O)N/N=C/c1ccccc1O | inconclusive [activator, full curve, poor fit] |
| c1ccc(SCc2nc3ccccc3s2)nc1 | inconclusive [activator, partial curve, poor fit] |
| O=C(C[n+]1cc(-c2ccc(F)cc2)n2c1CCC2)N1c2ccccc2Sc2ccccc21 | inconclusive [activator, partial curve, poor fit] |
| COc1cc(C(C[N+](=O)[O-])c2c(C)cc3ccccn23)ccc1O (stereo not given) | inactive |
| CC(C)(C)NS(=O)(=O)c1cc(C(=O)Nc2sccc2C#N)ccc1Cl | inconclusive [activator, single point] |
| COc1ccc2[nH]cc(C(=O)NCCc3ccccc3)c(=O)c2c1 | inconclusive [activator, single point] |
| Cn1c(=O)n(/N=C/c2ccccc2)c2ccccc21 | inconclusive [activator, partial curve, poor fit] |
| COCCNS(=O)(=O)c1ccc2c(c1)oc(=O)c1cc(S(=O)(=O)NCCOC)ccc12 | inconclusive [activator, single point] |
